Laboratory results as given in PubChem BioAssay AID1347073 (National Center for Advancing Translational Sciences (NCATS), 2019).
In all, about 45,000 compounds went through this assay and about 200 (0.44%) were called active. Inconclusive results (about 7%) are left out. Calls follow the shape of the dose curve; as a rule, active = well fitted activation curve with a large enough effect; inconclusive = small, poorly fitted or top-dose-only effect; inactive = no such curve, though single readings can be large or run the other way. This is one part of the list.

Test: qHTS of TDP-43 Inhibitors: NCGC Sytravon Library Screen; also: 0% is about no effect; nearly all actives have a fitted effect of over 55% in size
Conditions: yeast TDP-43 toxicity rescue, BacTiter-Glo growth, 24 h; series mostly up to 46.1 µM; growth rescue (activation): at the top concentration
Procedure, shortened: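 TDP-43-expressing yeast, pregrown in raffinose, seeded at OD600 0.02 in galactose medium with compound for 24 hr at 30 deg C. Growth read by BacTiter-Glo luminescence, so rescue of toxicity appears as activation.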

**Q.** With `O=C(N/N=C/C=C/c1ccco1)c1ccncc1` as the compound, how does the “growth rescue (activation)” value read?
**A.** inactive: 7.58%

**Q.** Which “growth rescue (activation)” value does the source give for `Cc1ccc(Oc2nccc(-c3ccc(Cl)cc3)n2)cc1` here?
**A.** inactive: 27.4%

**Q.** With `COC(=O)C(NC(=O)C(NC(=O)C1CCC(C)CC1)C(C)C)C(C)C` (centres undefined) as the compound, how does the “growth rescue (activation)” value read?
**A.** inactive: 22.7%

**Q.** Which “growth rescue (activation)” value does the source give for `CCCc1ncc(C(O)(c2ccccc2)c2ccccc2)n1C` here?
**A.** inactive: 0.986%

**Q.** For `O=c1cc(-c2ccccc2)nc(SCCOc2ccccc2Cl)[nH]1`, which “growth rescue (activation)” value is on record?
**A.** inactive: -9.43%

**Q.** Which “growth rescue (activation)” value does the source give for `O=c1[nH]c(CN2CCOCC2)nc2cc(Cl)ccc12` here?
**A.** inactive: 8.4%

**Q.** For `Cc1ccc(S(=O)(=O)N(C)C)cc1NC(=O)C(C)OC(=O)/C=C/c1cccs1` (centres undefined), which “growth rescue (activation)” value is on record?
**A.** inactive: 25.2%

**Q.** Which “growth rescue (activation)” value does the source give for `COc1ccc(Cl)cc1-c1cc(C(=O)NCc2cc(C(F)(F)F)cc(C(F)(F)F)c2)[nH]n1` here?
**A.** inactive: 10.1%

**Q.** For `COc1ccccc1OCc1csc(N)n1`, which “growth rescue (activation)” value is on record?
**A.** inactive: -12.1%

**Q.** With `CC1(C(=O)NCc2cccs2)CCN1C(=O)Cc1ccc(Cl)cc1Cl` (centres undefined) as the compound, how does the “growth rescue (activation)” value read?
**A.** inactive: 6.98%

**Q.** With `Cc1ccsc1CN(C(=O)c1oc2ccc(Br)cc2c1C)C1CCS(=O)(=O)C1` (centres undefined) as the compound, how does the “growth rescue (activation)” value read?
**A.** inactive: 15.1%

**Q.** For `Cn1c(=O)c2c(nc(NCCOc3ccc(C(C)(C)C)cc3)n2C)n(C)c1=O`, which “growth rescue (activation)” value is on record?
**A.** inactive: 4.21%

**Q.** Which “growth rescue (activation)” value does the source give for `O=C(CSc1nnc(NC(=O)C2CC2)s1)Nc1ccccc1` here?
**A.** inactive: -3.99%

**Q.** With `CCOc1cc(N2CCOCC2)c(OCC)cc1NC(=O)c1cnccn1` as the compound, how does the “growth rescue (activation)” value read?
**A.** inactive: 8.09%

**Q.** With `CCCCC(=O)NS(=O)(=O)c1ccc(N=NN(CC)CC)cc1` as the compound, how does the “growth rescue (activation)” value read?
**A.** inactive: 9.66%

**Q.** With `CC1(Cc2cc(Cl)ccc2C(F)(F)F)C(=O)Nc2cc(-c3ccccc3Cl)ccc21` (centres undefined) as the compound, how does the “growth rescue (activation)” value read?
**A.** inactive: 6.19%

**Q.** Which “growth rescue (activation)” value does the source give for `O=C(Cc1ccccc1[N+](=O)[O-])NCc1ccc2c(c1)OCO2` here?
**A.** inactive: 23.9%

**Q.** With `COc1ccccc1-c1cnc(C(O)c2ccc(Cl)c(F)c2)[nH]1` (centres undefined) as the compound, how does the “growth rescue (activation)” value read?
**A.** inactive: 8.18%

**Q.** With `Cc1cccc(NC(=O)CN2C(=O)N/C(=C\c3ccccc3OCc3ccc(C(=O)O)cc3)C2=O)c1` as the compound, how does the “growth rescue (activation)” value read?
**A.** inactive: 11.1%

**Q.** Which “growth rescue (activation)” value does the source give for `CC1=C/C(=N\OS(=O)(=O)c2ccccc2)C(C(C)C)=CC1=O` here?
**A.** inactive: -92.3%

**Q.** With `C=C(C)C1CC=C(C)/C(=N/Nc2ccccc2[N+](=O)[O-])C1` (centres undefined) as the compound, how does the “growth rescue (activation)” value read?
**A.** inactive: 1.26%

**Q.** With `Cc1c(NC(=O)Nc2cccc([N+](=O)[O-])c2)c(=O)n(-c2ccccc2)n1C` as the compound, how does the “growth rescue (activation)” value read?
**A.** inactive: 5.37%

**Q.** For `Cc1ccccc1OCCCCn1c(CO)nc2ccccc21`, which “growth rescue (activation)” value is on record?
**A.** inactive: 1.18%

**Q.** With `CN(Cc1ccccc1)C(=O)CC(=O)N(C)Cc1ccccc1` as the compound, how does the “growth rescue (activation)” value read?
**A.** inactive: 9.55%

**Q.** With `Cc1oc2cc(OCc3cnn(-c4ccccc4)c3)ccc2c(=O)c1Oc1ccccc1F` as the compound, how does the “growth rescue (activation)” value read?
**A.** inactive: 17%

**Q.** For `CC(=O)Nc1ccc(C2=NN(c3ccccc3)C(c3ccccc3)C2)cc1` (centres undefined), which “growth rescue (activation)” value is on record?
**A.** inactive: -1.68%

**Q.** For `Cc1nc2c(OCc3ccc(Cl)cc3)cccn2c1N(C)Cc1cccs1`, which “growth rescue (activation)” value is on record?
**A.** inactive: 6.21%

**Q.** Which “growth rescue (activation)” value does the source give for `Cc1cccc(C(=O)NCc2nnc(SCC(=O)Nc3nncs3)n2C)c1` here?
**A.** inactive: -16.3%

**Q.** With `CCOC(=O)N(C)c1c(CC)nc2c(OCC(=O)C(C)(C)C)cccn12` as the compound, how does the “growth rescue (activation)” value read?
**A.** inactive: 13.3%

**Q.** Which “growth rescue (activation)” value does the source give for `O=C(/C=C/c1ccccc1)NCc1ccco1` here?
**A.** inactive: -2.46%

**Q.** Which “growth rescue (activation)” value does the source give for `CC(=O)N1CCN(c2ccc(S(=O)(=O)N3CCOCC3)cc2[N+](=O)[O-])CC1` here?
**A.** inactive: 7.81%

**Q.** With `O=C(c1cc(COc2ccc(F)cc2Cl)on1)N1CC[C@@H]2CCCC[C@H]2C1` as the compound, how does the “growth rescue (activation)” value read?
**A.** inactive: 10.3%

**Q.** With `CC(C)NC(=O)c1ccc(S(=O)(=O)N(C)C)cc1` as the compound, how does the “growth rescue (activation)” value read?
**A.** inactive: 6.54%

**Q.** For `COc1ccc(C(=O)Nc2cccc(S(=O)(=O)N3CCCC3)c2)cc1S(=O)(=O)N1CCOCC1`, which “growth rescue (activation)” value is on record?
**A.** inactive: 1.57%

**Q.** With `O=[N+]([O-])c1ccc(Cl)c(CN2CCSCC2)c1` as the compound, how does the “growth rescue (activation)” value read?
**A.** inactive: -18.4%

**Q.** For `CCCS(=O)(=O)N1CCN(Cc2ccc([N+](=O)[O-])cc2)CC1`, which “growth rescue (activation)” value is on record?
**A.** inactive: 20.6%

**Q.** Which “growth rescue (activation)” value does the source give for `Cc1nc2cc(C(F)(F)F)ccc2n1C1CCN(CC(=O)N2CCCC2)CC1` here?
**A.** inactive: -2.54%

**Q.** Which “growth rescue (activation)” value does the source give for `COc1ccc(COC(=O)NNC(=O)c2ccccc2Cl)cc1` here?
**A.** inactive: -19.9%

**Q.** For `CC(C)c1ccc(/C=N/n2cnnc2)cc1`, which “growth rescue (activation)” value is on record?
**A.** inactive: 2.1%

**Q.** With `O=S(=O)(c1ccc(F)cc1)c1nc(-c2ccccc2)oc1N1CCOCC1` as the compound, how does the “growth rescue (activation)” value read?
**A.** inactive: 18.9%

**Q.** Which “growth rescue (activation)” value does the source give for `COc1ccc(C(NC(=O)c2cccc(F)c2)c2ccccc2)cc1` (centres undefined) here?
**A.** inactive: 8.13%

**Q.** Which “growth rescue (activation)” value does the source give for `CC(=O)N1CCN(Cc2nc(-c3cccc(Cl)c3)no2)CC1` here?
**A.** inactive: -1.67%

**Q.** With `COc1ccc(C(CNS(=O)(=O)c2cccc(F)c2)N2CCCC2)cc1` (centres undefined) as the compound, how does the “growth rescue (activation)” value read?
**A.** inactive: 13.1%

**Q.** Which “growth rescue (activation)” value does the source give for `CCCCn1c(=O)[nH]c(=O)c2c1nc(-c1ccccc1OC(F)F)n2C` here?
**A.** inactive: 11.5%

**Q.** For `O=C(NCCc1ccccc1)c1ccc2c(c1)N(Cc1ccccc1)C(=O)c1ccccc1S2(=O)=O`, which “growth rescue (activation)” value is on record?
**A.** inactive: 14%

**Q.** Which “growth rescue (activation)” value does the source give for `Cc1nc2ccccc2c(=O)n1CCc1ccc(O)cc1` here?
**A.** inactive: -8.51%

**Q.** Which “growth rescue (activation)” value does the source give for `CCOc1ccc(NS(=O)(=O)c2cc(NC(=O)c3cccc(C)c3)ccc2Cl)cc1` here?
**A.** inactive: -5.43%

**Q.** For `CCC(C)N(C(=O)c1csnn1)C(C(=O)NCc1ccc(F)cc1)c1ccccc1` (centres undefined), which “growth rescue (activation)” value is on record?
**A.** inactive: -6.25%

**Q.** For `Cc1ccc(C(=O)CCNc2ccc(Cl)cc2)o1`, which “growth rescue (activation)” value is on record?
**A.** inactive: 12.4%

**Q.** For `Cc1ccc(/C=N/N2CCN(Cc3ccccc3)CC2)cc1`, which “growth rescue (activation)” value is on record?
**A.** inactive: 2.78%

**Q.** For `CN(C)c1ccc(/C=C2/SC(=O)N(CCN=C3NS(=O)(=O)c4ccccc43)C2=O)cc1`, which “growth rescue (activation)” value is on record?
**A.** inactive: 9.41%

**Q.** For `O=C(CN1CCN(Cc2ccc(F)cc2Cl)C1=O)NCc1cccs1`, which “growth rescue (activation)” value is on record?
**A.** inactive: 10.3%

**Q.** For `Fc1ccc(-c2n[nH]c(=S)n2/N=C/c2c[nH]c3ccccc23)cc1`, which “growth rescue (activation)” value is on record?
**A.** inactive: 7.12%

**Q.** Which “growth rescue (activation)” value does the source give for `CC(=O)c1ccccc1NC(=O)CCNC(=O)c1ccco1` here?
**A.** inactive: 14.5%

**Q.** For `COCCCNC(=O)CSC1=Nc2ccccc2C2=NC(Cc3c[nH]c4ccccc34)C(=O)N12` (centres undefined), which “growth rescue (activation)” value is on record?
**A.** inactive: 10.1%

**Q.** With `COc1ccc(NC(=O)CN(C)S(=O)(=O)c2ccc(Br)s2)cc1OC` as the compound, how does the “growth rescue (activation)” value read?
**A.** inactive: -8.17%

**Q.** For `CSc1ccccc1NS(=O)(=O)c1ccccc1`, which “growth rescue (activation)” value is on record?
**A.** inactive: 2.73%

**Q.** With `O=C(/C=C/c1ccccc1)OCC(=O)c1c[nH]c2ccccc12` as the compound, how does the “growth rescue (activation)” value read?
**A.** inactive: 15.7%

**Q.** With `Cc1ccc(NC(=O)CSc2n[nH]c(=O)n2C2CC2)cc1S(=O)(=O)N1CCOCC1` as the compound, how does the “growth rescue (activation)” value read?
**A.** inactive: -2.12%

**Q.** For `O=C(CN1C(=O)NC2(CCCC2)C1=O)N1CCN(S(=O)(=O)c2ccccc2)CC1`, which “growth rescue (activation)” value is on record?
**A.** inactive: -3.3%

**Q.** For `Cc1sc2ncnc(N3CCN(S(=O)(=O)c4ccc(Br)cc4)CC3)c2c1C`, which “growth rescue (activation)” value is on record?
**A.** inactive: 10.7%

**Q.** Which “growth rescue (activation)” value does the source give for `COc1ccc(C2(NC(C)=O)CCN(C(=O)c3ccco3)CC2)cc1` here?
**A.** inactive: 36.7%

**Q.** Which “growth rescue (activation)” value does the source give for `O=C(COc1ccc2c(c1)OCO2)Nc1nncs1` here?
**A.** inactive: -7.71%

**Q.** With `C=CCC(c1ccccc1)N(C(C)=O)c1ccco1` (centres undefined) as the compound, how does the “growth rescue (activation)” value read?
**A.** inactive: -6.5%

**Q.** With `Cc1cc(C)cc(N(CC(=O)NCC2CCCO2)C(=O)CCC(=O)Nc2nccs2)c1` (centres undefined) as the compound, how does the “growth rescue (activation)” value read?
**A.** inactive: -4.76%

**Q.** With `COc1ccccc1OC(C)C(=O)N1CC(=O)Nc2ccccc21` (centres undefined) as the compound, how does the “growth rescue (activation)” value read?
**A.** inactive: 0.578%

**Q.** With `CC(=O)Nc1ccc(NC(=O)c2ccc(OCc3c(C)noc3C)cc2)cc1` as the compound, how does the “growth rescue (activation)” value read?
**A.** inactive: -6.14%

**Q.** With `CC(=O)c1cccc(NC(=O)c2cc(-c3ccco3)on2)c1` as the compound, how does the “growth rescue (activation)” value read?
**A.** inactive: 17.3%

**Q.** With `CCCn1c(N)c(N(CCOC)C(=O)c2ccccc2F)c(=O)[nH]c1=O` as the compound, how does the “growth rescue (activation)” value read?
**A.** inactive: -5.56%
